Test results as given in the supplement of paper PMC3334620.
In all, about 33,000 sequences were measured (“E-score (-0.5 to 0.5)”: median about -0.016, highest 2% from about 0.32 on). Some of the results follow.

What follows are sequences tested against T1, Stp1 (UniProt B3LFK1) (assay: PBM E-score (8-mer binding enrichment) (E-score (-0.5 to 0.5)); higher = stronger / more preferred TF binding; most listed sequences are background and not binding sites). Settings: protein concentration: 200 nM; construct: GST-full length.
T1 sequence: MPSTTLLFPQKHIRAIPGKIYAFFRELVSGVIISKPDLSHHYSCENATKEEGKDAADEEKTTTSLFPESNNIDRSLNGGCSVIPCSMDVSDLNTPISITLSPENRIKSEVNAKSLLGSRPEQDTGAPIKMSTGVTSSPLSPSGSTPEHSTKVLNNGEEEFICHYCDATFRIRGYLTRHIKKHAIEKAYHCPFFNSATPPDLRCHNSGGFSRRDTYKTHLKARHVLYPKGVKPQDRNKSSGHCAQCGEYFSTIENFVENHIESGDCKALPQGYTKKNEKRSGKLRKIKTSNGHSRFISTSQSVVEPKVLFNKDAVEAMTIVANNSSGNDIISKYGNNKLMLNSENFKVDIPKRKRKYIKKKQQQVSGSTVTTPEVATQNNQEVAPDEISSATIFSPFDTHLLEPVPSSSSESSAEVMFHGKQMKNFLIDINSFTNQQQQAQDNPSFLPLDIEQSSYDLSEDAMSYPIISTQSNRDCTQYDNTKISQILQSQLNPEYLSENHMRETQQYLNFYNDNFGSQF
Procedure: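 Universal 'all 10-mer' protein binding microarrays (Agilent AMADID 015681) probed with GST-tagged S. cerevisiae TFs (full-length or DBD) made by in vitro transcription/translation (PURExpress), about 100-200 nM. Bound TF was detected with fluorescent anti-GST. Each ungapped 8-mer (which stands for itself and its reverse complement) is scored by the PBM enrichment score (E-score), a modified Wilcoxon-Mann-Whitney statistic from -0.5 to +0.5, computed with the Universal PBM Analysis Suite. Scale: above 0.35 generally sequence-specific binding.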

Row | Sequence | PBM E-score
1 | GAAGGTCA | -0.276
2 | CCGTTCAC | -0.043
3 | CACCGGTG | -0.262
4 | ATTGATGG | 0.00393
5 | CGACGGAG | -0.147
6 | CTCCACGA | -0.0671
7 | ATGCCTTG | 0.274
8 | CCAGGGCG | -0.0182
9 | GAATTGAC | 0.0103
10 | GAAGGAGC | -0.324
11 | ACATCTGG | 0.0279
12 | TCGAACAA | 0.178
13 | CGTGGGAC | -0.109
14 | CTGGCTCA | -0.00983
15 | AATATAGG | 0.132
16 | CGTCCTTA | -0.0597
17 | GCTATTCC | -0.114
18 | GCGGGTCC | -0.307
19 | GCCCCACA | -0.0158
20 | AACAAGCC | 0.0514
21 | AAAGAGCG | -0.102
22 | ACGGTATG | 0.114
23 | AGTTACCG | 0.0589
24 | ATCGCTAC | -0.0953
25 | AAATCAAA | 0.159

Row | Sequence | PBM E-score
26 | TGAACCAA | 0.143
27 | AGTTTGTC | -0.0407
28 | GAGTGCTA | -0.221
29 | AACTCCGG | 0.0786
30 | CGCGCTCC | 0.103
31 | CTGATCCA | -0.109
32 | ACATCAAG | -0.0578
33 | ATCTATAG | -0.0323
34 | GTAGACAA | 0.0381
35 | GCGTATAA | 0.174
36 | CATATTCG | 0.0652
37 | ACCTTCTG | -0.123
38 | GAGTTCCC | -0.255
39 | AGAGTATA | 0.0782
40 | ATGAGCCG | 0.223
41 | ACATAATC | 0.073
42 | CTATCTCA | 0.00699
43 | AGACTTTC | -0.256
44 | AAACCCCC | -0.269
45 | AGAGGAAT | -0.215
46 | CAGTTCTC | -0.122
47 | GATGCGTA | 0.0725
48 | ATGCCCTG | 0.106
49 | CAAGCTTG | -0.216
50 | ATTCTACG | 0.19

Row | Sequence | PBM E-score
51 | GCGCCGCC | 0.454
52 | GTAAGGTA | 0.0482
53 | GTCGGAAA | 0.111
54 | GTGTACTA | -0.0337
55 | CGCCCGTC | 0.133
56 | AATACGGG | -0.0327
57 | CTCGGGTA | -0.118
58 | ACAGGTCA | -0.274
59 | ACAGCGCC | 0.249
60 | AAGACCTA | -0.0977
61 | AATTTCAT | 0.0595
62 | CGGGACCA | -0.276
63 | ATTCCCCG | -0.156
64 | CACTGCTG | -0.094
65 | CATTTGAG | 0.112
66 | AAAGAAAT | 0.128
67 | CACTTACA | 0.15
68 | CCCTATCC | -0.236
69 | GCTGTCGA | -0.0776
70 | ACCGACAA | 0.0811
71 | AAAAAGCG | 0.178
72 | GGGGCTCA | -0.354
73 | CTGAGTGA | 0.0819
74 | AGTAGATC | -0.159
75 | CAACAGTA | -0.0637

Row | Sequence | PBM E-score
76 | AATATTCA | 0.128
77 | AAGTCCCA | -0.253
78 | AAAGTTCC | -0.0752
79 | AACGAAAG | 0.148
80 | GGGGTGGA | -0.336
81 | CATTGGTC | -0.218
82 | CACAAATC | 0.127
83 | GTTTTCGA | 0.0662
84 | CGTGAGCC | -0.0735
85 | CTAAGATA | 0.0936
86 | CACCTCTC | -0.219
87 | ATGTGTCG | -0.00911
88 | CAGTTCGG | 0.127
89 | AGTTTATG | 0.0225
90 | GAGCCGGC | 0.0741
91 | TCATGAAA | 0.0814
92 | TGTGTGAA | 0.185
93 | ACCTTGGG | -0.193
94 | AGGTGGCG | -0.0008
95 | AGCAATAC | 0.0561
96 | ACTTTCCG | -0.0744
97 | ATCAATTA | 0.202
98 | AATCTTAT | 0.06
99 | AACATGTA | 0.103
100 | AATGTAGT | 0.0282

Row | Sequence | PBM E-score
101 | ACTTGAGA | -0.0195
102 | TCTACAAA | 0.0554
103 | CTAGTTGC | -0.0422
104 | GCGCACAA | 0.211
105 | AAGAATAT | -0.125
106 | GAGCGATA | -0.0856
107 | ACAGTGCG | -0.022
108 | ACTCCTCG | 0.0174
109 | ATCTGATG | -0.188
110 | ATACCATC | 0.00132
111 | CCTTGTTA | 0.17
112 | GCGGAAAC | -0.179
113 | ATAATCGG | 0.135
114 | ACGGTGTA | 0.0306
115 | CGTCCCCC | -0.284
116 | AGTCGTTA | 0.0149
117 | TCCGTACA | 0.207
118 | TAACGAAA | 0.251
119 | AGGCAGTA | 0.0386
120 | GGCAACAC | 0.204
121 | GAACATAC | 0.102
122 | ACAAAAAC | 0.0472
123 | GTATCTAA | 0.15
124 | CGCAGATA | 0.036
125 | ATCTCGAC | -0.0813

Row | Sequence | PBM E-score
126 | GAATGGCA | 0.312
127 | CAGGAGGA | -0.193
128 | GACTACAA | 0.0696
129 | ACGAGCGA | 0.0494
130 | ATCTTAGA | 0.194
131 | ATTATGTA | 0.109
132 | GATATGAA | 0.149
133 | AGACGGAG | -0.0904
134 | ATACGCTA | -0.152
135 | CCGTTACC | -0.139
136 | CACAGCGA | 0.0696
137 | CATAATGG | -0.0722
138 | GTCGAATA | -0.134
139 | ACTCTTCA | 0.0095
140 | CGTCTCTC | -0.00169
141 | ACCGGTTG | -0.181
142 | ACGTCTGG | 0.0464
143 | GTGACGCA | 0.0085
144 | AAGTATAC | 0.0791
145 | ACTTGAAC | 0.0394
146 | ACTCCCCC | -0.235
147 | ACCAGTCT | -0.123
148 | CACTAATG | 0.022
149 | AGACAGAT | -0.049
150 | AGCAATGC | 0.167

Row | Sequence | PBM E-score
151 | AGATGGGA | -0.204
152 | AGTCGATA | -6e-05
153 | ATAAGGCC | 0.0529
154 | AGTCTGGG | -0.352
155 | AACACGGC | 0.449
156 | AACTCTTG | -0.08
157 | GTAAAAAA | 0.134
158 | TGGCTAAA | 0.0721
159 | GTGCGCCA | 0.00273
160 | GATCAAAA | 0.0871
161 | CGACGTTC | -0.214
162 | AAACGAAG | 0.0289
163 | ATTCCTAA | 0.0731
164 | CTCTGCAA | -0.053
165 | TGTCATAA | 0.0898
166 | GCGACTCC | -0.294
167 | AACGTCAC | -0.0926
168 | GGATTATA | 0.0566
169 | GGGCGCAA | 0.169
170 | GGCTAAAC | -0.049
171 | TGGTTGAA | -0.104
172 | GATAAATA | 0.138
